Source: PubChem BioAssay AID493208 (National Center for Advancing Translational Sciences (NCATS), 2011)
In all, about 44,000 compounds went through this assay and about 340 (0.77%) were called active. About 5% were inconclusive and are not listed. The call rests on the fitted dose curve; in most records, active means well fitted inhibition curve with a large enough effect; inconclusive means small, poorly fitted or top-dose-only effect; inactive means flat fitted curve, though single readings scatter. The list shows a part of the results.

Test: Acumen qHTS Assay for Inhibitors of the mTORC1 Signaling Pathway in MEF (Tsc2-/-, p53-/-) Cells: Sytravon;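 further: plate controls were DMSO for no effect and rapamycin for full effect; nearly all actives have a fitted effect of over 50% in size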
Settings: phospho-rpS6 immunofluorescence/PI, 24 h; series mostly up to 38.3 µM; activity change, negative = inhibition: at the top concentration
In short: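 Compounds act on Tsc2-/-, p53-/- fibroblasts carrying an empty vector for 24 h before fixation and dual staining for phospho-S6 and DNA (propidium iodide). Values are percentages of cells above a rapamycin-defined pS6/PI threshold.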

Activity change, negative = inhibition, inactive:
Cc1ccccc1NC(=O)Cn1c(=O)n(Cc2ccc3c(c2)OCO3)c(=O)c2ccc(C(=O)NC3CCCCC3)cc21 4.28%
Cc1ccc2cccc(NC(=O)c3ccc(-c4cccc(Cl)c4Cl)o3)c2n1 8.9%
CSCCC(NS(=O)(=O)c1ccc2c(c1)oc(=O)n2C)C(=O)NCc1ccccc1 (centres undefined) 1.16%
COc1ccc(CCCc2nnc(SCC(=O)Nc3ccc(F)cc3)o2)cc1C -15.4%
O=C(NCc1ccc(F)cc1)C1CCCCN1S(=O)(=O)c1ccc(F)cc1 (centres undefined) -2.61%
CCC(=O)N1CCc2cc(S(=O)(=O)CCC(=O)N3CCN(c4cccc(Cl)c4)CC3)ccc21 0.0442%
Cc1cc(C)cc(NC(=O)c2oc3ccc4c(c3c2C)C(=O)CC(C)(C)O4)c1 -0.0942%
COc1ccc2c(c1)c1c(c(=O)n(Cc3ccccc3)c(=O)n1CC(=O)NCc1ccc(C)cc1)n2C -4.51%
COc1ccc(N2CCN(C(=O)CCC(=O)NNc3nc4ccccc4c4nc(C)nn34)CC2)cc1 0.733%
Cc1ccc(OCc2nnc(SCC(=O)Nc3ccccc3C(C)C)o2)cc1 -0.0164%
CCOC(=O)c1cc(C)n(CC2CCC(C(=O)Nc3ccc(C)cc3)CC2)c1C (centres undefined) -8.78%
CCc1ccc(NC(=O)c2ccc3nc(C(C)C)oc3c2)cc1 1.91%
COc1cc(OC)c(NC(=O)Cn2c(=O)cc(C)c3c(C)nn(-c4ccc(C)cc4)c32)cc1Cl -0.571%
CCOC(=O)N1CCC2(CC1)OC(=O)C(C)=C2C(=O)NCc1ccc(C)cc1 -4.99%
CCNC(=O)c1ccc(CSc2nc3cccnc3n2Cc2ccc(OC)cc2)cc1 2.76%
COC(=O)Cn1ccc2cc(S(=O)(=O)N3CCCCCC3)ccc21 -8.69%
CCN(C(=O)CN1C(=O)COc2ccc(S(=O)(=O)N3CCOCC3)cc21)c1cccc(C)c1 -3.92%
CCCc1cnc2c(c1SCC(=O)Nc1c(C)cc(C)cc1C)c(=O)n(C)c(=O)n2C -0.273%
CCc1nn(-c2ccccc2)c2nc(-c3ccc(O)cc3)c3cc(OC)c(OC)cc3c12 -0.227%
COC(=O)c1ccc(NC(=O)Cn2c(-c3nonc3N)nc3ccccc32)cc1 1.82%
Cc1cccc(-c2nc(CN3CCCC(C(=O)NCc4ccc(Cl)cc4)C3)c(C)o2)c1 (centres undefined) -2.86%
Cc1nn(CC(=O)N2CCC(C)CC2)c(=O)c2cc3occc3n12 1.61%
COc1cccc(NC(=O)N(Cc2c[nH]c3ccccc23)C2CCCCCC2)c1 -11.9%
CN(C(=O)c1cc2c(Cl)nc3ccccc3c2s1)c1cccc(C(F)(F)F)c1 2.08%
CCn1c(C(=O)Nc2c(C)cccc2C)cc2sc(Cl)cc21 -3.65%
O=C(Cn1nc(-c2ccccc2)c2c(c1=O)CCCC2)Nc1ccc(F)c(Cl)c1 -5.21%
Cc1ccccc1NS(=O)(=O)c1ccc2[nH]cc(C(=O)NC3CCCCC3)c(=O)c2c1 -1.41%
COc1cccc(-c2noc(COc3ccc(C(C)(C)C)cc3)n2)c1 3.04%
Cc1ccc(NC(=O)c2oc3ccc(S(=O)(=O)N4CCCCCC4)cc3c2C)c(C)c1 0%
CCn1c(=O)c2cc(C(=O)NC3CCC(C)CC3)sc2c2ccccc21 (centres undefined) -9.91%
COc1ccc(NC(=O)c2cc3c(=O)n(Cc4cccs4)ccc3nc2C)cc1 -11.5%
O=C(c1cc(-c2cccc(Cl)c2)on1)N1CCCCC1 -10.7%
Cc1ccc(NC(=O)c2c(NC(=O)c3ccc(F)cc3)sc3c2CCCC3)cc1C 12.7%
COc1ccc(-n2c(C)nnc2SCc2nc(-c3ccc(OC)c(OC)c3)no2)cc1 0.0842%
COc1ccc(OC)c(NC(=O)Cn2c(=O)n(-c3cccc(C)c3)c(=O)c3c2c2cc(C)ccc2n3C)c1 5.26%
CCOC(=O)c1c(C)oc2nc(C)nc(N3CCN(c4cc(Cl)ccc4C)CC3)c12 5.75%
CCOC(=O)c1cc(OC(=O)c2cc(OC)c(OC)c(OC)c2)n(-c2ccccc2)n1 0.775%
CCc1ccccc1N(C)C(=O)Cn1cnc2sc(C)c(S(=O)(=O)N3CCC(C)CC3)c2c1=O 4.12%
CCOc1ccc(-n2c(SCC(=O)Nc3cc(C)on3)nc3c([nH]c4ccccc43)c2=O)cc1 -1.41%
COc1cccc(CNC(=O)CCCn2nc(C)c3sc4ccccc4c3c2=O)c1 2.13%
COc1ccc(C)cc1NC(=O)Cn1c(=O)oc2cc(S(=O)(=O)N3CCCCC3)ccc21 -4.39%
Cc1ccc(Nc2ccc3cc(S(=O)(=O)N4CCCCC4)ccc3n2)cc1F -3.99%
CCn1cc2nc(SCC(=O)Nc3ccc(OC)c(Cl)c3)n(Cc3ccc(OC)cc3)c(=O)c2n1 -6.68%
CCOC(=O)c1ccc(NC(=O)CSc2nc(-c3ccc(OC)cc3)cc(C(F)(F)F)c2C#N)cc1 -8.21%
O=C(Cc1ccccc1)N(Cc1cccnc1)c1nc2c(Cl)cccc2s1 -3.67%
COc1ccc(N(CC(=O)N2CCN(c3ccccc3)CC2)S(=O)(=O)c2c(C)nn(C)c2C)cc1 -6.34%
COc1ccc(-c2cc3nc(C)c(CCC(=O)NCc4ccccc4Cl)c(C)n3n2)c(OC)c1 0.28%
O=C(CCC1CCCC1)N1CCc2c([nH]c3ccccc23)C1c1ccc(F)cc1 (centres undefined) -7.42%
CC(=O)c1ccc(NC(=O)c2cn(-c3ccccc3)nc2-c2ccc(Br)cc2)cc1 -7.6%
CCc1nnc(SC(CC)C(=O)Nc2ccc(OC)c(Cl)c2)c2cc3occc3n12 (centres undefined) -12.9%
N#Cc1nc(COc2ccccc2Cl)oc1NCCc1ccccc1 -9.07%
CCc1cccc(C)c1NC(=O)C1CCN(S(=O)(=O)c2c(C)noc2/C=C/c2c(C)cc(C)cc2C)CC1 0.158%
COc1ccccc1Nc1nc(-c2ccc(F)cc2)c2c(n1)-c1ccccc1OC2 -7.88%
Cc1ccc(CCNC(=O)CN(c2cc(C)cc(C)c2)S(=O)(=O)c2c(C)noc2C)cc1 2.45%
COc1ccccc1NC(=O)c1c(C)cc(C)nc1SCC(=O)Nc1ccc(C)c(C)c1 -16.6%
COc1cccc(-n2ccn(CC(=O)NCc3ccc(C)cc3)c(=O)c2=O)c1 7.31%
Cc1ccc(NC(=O)Nc2cccc(C)n2)cc1 2.13%
Cc1cc(C)c(NS(=O)(=O)c2ccc3c(c2)CC(C)N3C(=O)C2CCC2)c(C)c1 (centres undefined) -6.43%
CCOc1ccc(C2CC(=O)NC(NC(=O)c3cccc(Cl)c3)=N2)cc1 (centres undefined) -5.42%
O=C(Nc1ccc2nc(SCCOc3ccccc3)sc2c1)c1ccccc1F -11.6%
Cc1ccc(CSC2=Nc3ccccc3C3=NC(CC(=O)NCc4cccs4)C(=O)N23)c(C)c1 (centres undefined) 1.19%
CCCCNS(=O)(=O)c1ccc(N2CCCCS2(=O)=O)cc1 -0.0544%
COc1ccc(-c2cn3c(n2)sc2cc(C(=O)Nc4cccc(SC)c4)ccc23)cc1 5.2%
CCc1ccc(N(CC)C(=O)CCn2cnc3onc(-c4ccc(F)cc4)c3c2=O)cc1 -2.38%
CCOC(=O)c1c(C)c(-c2ccccc2)n(CC(=O)Nc2ccc(OCC)cc2)c1C -7.42%
Cc1ccc(Cl)cc1N1CCN(C(=O)C2CCN(S(=O)(=O)Cc3ccccc3)CC2)CC1 -0.069%
COc1ccccc1-c1noc(-c2ccc(N3CCN(C)CC3)c([N+](=O)[O-])c2)n1 -0.178%
Cc1ccc(-c2ccc(=O)n(CC(=O)NCCc3ccc(Cl)cc3)n2)cc1 12.3%
COC(=O)C(CCSC)NC(=O)Cn1ncc2c([nH]c3ccccc32)c1=O (centres undefined) -1.16%
COc1ccc(NC(=O)c2c(NCc3cccs3)sc3c2CCCC3)c(OC)c1 -13.4%
CCCOc1ccc(CNC(=O)c2ccc3c(c2)N(Cc2ccccc2)CCS3)cc1 -5.68%
COc1cccc2c1cc1c(=O)n(CC(=O)N3CCN(c4cccc(Cl)c4)CC3)nc(C)n12 -0.289%
O=C(OCc1cc(=O)n2nc(-c3cccs3)sc2n1)c1ccccc1 3.52%
CC(=O)n1nc(-c2cccnc2)nc1NCc1ccc(F)cc1 7.02%
O=C1c2oc3ccccc3c(=O)c2C(c2ccc(O)cc2)N1Cc1ccc2c(c1)OCO2 (centres undefined) 3.24%
O=C(c1ccc(Cl)cc1)N1CCC(c2nc3ccccc3o2)CC1 0.907%
CCOc1ccc(NC(=O)c2c(NCc3ccc(C)o3)sc3c2CCCCC3)cc1 -27.4%
Cc1ccc(CNC(=O)CN2C(=O)CSc3ccc(S(=O)(=O)N(C)C)cc32)cc1 4.52%
CC(C)CN(CCCNC(=O)c1cc(-c2cccs2)nc2ccccc12)CC(C)C 1.78%
CCN1CCN(CCCNC(=O)c2cnn(-c3ccccc3Cl)c2C2CCN(C(=O)OC(C)(C)C)CC2)CC1 -9.62%
CCOC(=O)C1CCCN(c2c(C(=O)c3ccc(OCC)cc3)cnc3ccccc23)C1 (centres undefined) 0.446%
Cc1cc(F)ccc1NC(=O)C1CCN(C(=O)c2cnn(-c3ccccc3)c2-n2cccc2)CC1 -1.07%
COC(=O)c1ccccc1NC(=O)c1ccc(-c2nc(COc3ccccc3)c(C)o2)cc1 -1.53%
CCCCc1nn2c(=O)cc(COC(=O)c3cccc(Cl)c3)nc2s1 -12.3%
O=C(c1ccccc1)c1cn(Cc2ccc(F)cc2)c2ccccc2c1=O -8.67%
Cc1cccc(C)c1NC(=O)Cn1nnc(C(=O)Nc2c(C)cccc2C)c1N -7.75%
O=C(CCC1N=C2c3ccccc3N=C(SCc3cccc(F)c3)N2C1=O)NCCc1ccccc1 (centres undefined) 0.17%
Cc1ccc(CNC(=O)CN2C(=O)CSc3c2c(C)nn3-c2ccccc2)cc1 2.95%
COc1ccc(C)cc1NC(=O)CCNC(=O)Cn1ccc2ccccc2c1=O -1.68%
COc1ccc(NC(=O)c2oc3ccccc3c2NC(=O)Cc2coc3cc(C)ccc23)cc1 0.662%
CCOC(=O)c1c(C)[nH]c(CCC(=O)NCc2cccc(C)c2)c1C -0.402%
COCCCn1c(=N)c(C(=O)NCc2cccnc2)cc2c(=O)n3cccc(C)c3nc21 -21.8%
COc1ccc(-n2ncc(C(=O)Nc3ccc4c(c3)OCO4)c2C2CCN(C(=O)OC(C)(C)C)CC2)cc1 -2.6%
Cc1ccc(NC(=O)Cn2cc(S(=O)(=O)Cc3cccc(Cl)c3)c3ccccc32)cc1C -19.3%
